Results from PMC10657792, “Downstream Allosteric Modulation of NMDA Receptors by 3-Benzazepine Derivatives” (Molecular Neurobiology, 2023).
Values joined by “and” are separate entries in the source; they are usually repeats but may differ in a detail not shown here. Equal entries are not always repeated. Further values from the same series stand in other lists.

How the values were obtained:
Assay type in all cases: cell-based
GluN1b wt/ GluN2B F114A = GluN1b wt/ GluN2B F114A (Rattus norvegicus, UniProt P35439+Q00960, F114A); experiment: TEVC recording in X. laevis oocytes, GluN2B mutant screening; details: GluN1-1b/F114A, single oocytes
Protocol: (§1) Single point mutations were incorporated into template DNA (GluN1-1b wt/ pSGEM and GluN2B wt/ pSGEM) by using the QuikChange II XL site-directed mutagenesis kit (Agilent Technologies, Germany). Mutagenesis primers were designed using the QuikChange Primer Design Program (Agilent) and provided by Microsynth (Microsynth AG, Balgach, Switzerland). For mutation of the desired amino acid in the gene, PCR amplification was performed with the respective mutagenesis primers (Eppendorf MasterCycler Gradient, Eppendorf Hamburg, Germany). Mutations were verified by automated DNA sequencing. Constructs were linearized with PacI (GluN1) or NheI (GluN2B). cRNA was prepared byin vitrotranscription using the mMessage mMachine T7 kit (Life Technologies, Darmstadt, Germany).
(§2) The NMDAR was expressed in stage V and VI oocytes originated from X. laevis. Oocytes were provided by Ecocyte Bioscience (Dortmund, Germany), and equimolar amounts of wild-type and mutated GluN1 and GluN2B cRNA were injected (0.8 ng each). The oocytes were incubated in Barth’s solution, containing (mmol l^−1): 88 NaCl, 1 KCl, 0.4 CaCl2, 0.33 Ca(NO3)2, 0.6 MgSO4, 5 TRIS–HCl, 2.4 NaHCO3, supplemented with 80 mg l^−1 theophylline, 63 mg l^−1 benzylpenicillin, 40 mg l^−1 streptomycin, and 100 mg l^−1 gentamycin and maintained at 18 °C until usage. After injection, the oocytes were incubated for 5 days at 18 °C. Subsequently, the activity of the expressed NMDARs in the oocytes was recorded by two-electrode voltage clamp (TEVC).
(§3) The compounds were retrieved as 10 mM stock solutions in DMSO and were subsequently diluted with agonist solution and adjusted to 0.1% DMSO concentration. Inhibition of each compound was measured via TEVC in X. laevis oocytes at room temperature using a Turbo Tec 10CX amplifier (NPI electronic, Tamm, Germany), NI USB 6221 DA/AD Interface (National Instruments, Austin, USA), and GePulse Software (Dr. Michael Pusch, Genova, Italy). Ba^2+-Ringer, consisting of 10 mM HEPES, 90 mM NaCl, 1 mM KCl, and 1.5 mM BaCl2, adjusted to pH 7.4, was used for TEVC measurements. Agonist solution containing 10 µM glycine and 10 µM (S)-glutamate was prepared in Ba^2+-Ringer, and the measurements were performed at a holding potential of − 70 mV, using electrodes with a glass capillary filled with 3 M KCl and a resistance between 0.5 and 1.5 MΩ. The compounds were tested by applying ascending concentrations, ranging from 1 to 30,000 nM, in at least six oocytes. Example traces for all recorded conditions can be found in Supplementary Figs. S2–S9.
(§4) TEVC data were analyzed using Ana (Dr. Michael Pusch, Genova, Italy), and statistics were performed using OriginPro 2020 (OriginLab Corporation, Northampton, USA). The inhibitory effect of each compound is calculated using the following equation: inhibition=1-Ic-Ih/Ia-Ih where Ih describes the current in the absence of agonists; Ia represents the steady-state current in the presence of the agonists; and Ic is defined as the steady-state after binding of agonist and compound. All dose response curves are fitted to the following logistic equation: y=A1-A2/1+x/x0^p+A2 where A1 describes the minimal inhibition of a compound and was set to 0; A2 represents the maximal inhibition of a compound; p is the slope of the curve; x0 is defined as the concentration at half-maximal inhibition; and x is the tested concentration. Data were statistically analyzed by one-way ANOVA and Tukey post-hoc mean comparison test in OriginPro 2020 (OriginLab Corporation, Northampton, USA). p values are indicated by * for p < 0.05, ** for p < 0.01, and *** for p < 0.001.

GluN1a wt/ GluN2B F194A = GluN1a wt/ GluN2B F194A (Rattus norvegicus, UniProt P35439+Q00960, F194A); experiment: as above; details: GluN1-1a GluN2B F194A, compound concentration 30 μM, single oocytes
GluN1a wt/ GluN2B F194A, sequence (Q00960 27-1482 F194A, other chains not shown): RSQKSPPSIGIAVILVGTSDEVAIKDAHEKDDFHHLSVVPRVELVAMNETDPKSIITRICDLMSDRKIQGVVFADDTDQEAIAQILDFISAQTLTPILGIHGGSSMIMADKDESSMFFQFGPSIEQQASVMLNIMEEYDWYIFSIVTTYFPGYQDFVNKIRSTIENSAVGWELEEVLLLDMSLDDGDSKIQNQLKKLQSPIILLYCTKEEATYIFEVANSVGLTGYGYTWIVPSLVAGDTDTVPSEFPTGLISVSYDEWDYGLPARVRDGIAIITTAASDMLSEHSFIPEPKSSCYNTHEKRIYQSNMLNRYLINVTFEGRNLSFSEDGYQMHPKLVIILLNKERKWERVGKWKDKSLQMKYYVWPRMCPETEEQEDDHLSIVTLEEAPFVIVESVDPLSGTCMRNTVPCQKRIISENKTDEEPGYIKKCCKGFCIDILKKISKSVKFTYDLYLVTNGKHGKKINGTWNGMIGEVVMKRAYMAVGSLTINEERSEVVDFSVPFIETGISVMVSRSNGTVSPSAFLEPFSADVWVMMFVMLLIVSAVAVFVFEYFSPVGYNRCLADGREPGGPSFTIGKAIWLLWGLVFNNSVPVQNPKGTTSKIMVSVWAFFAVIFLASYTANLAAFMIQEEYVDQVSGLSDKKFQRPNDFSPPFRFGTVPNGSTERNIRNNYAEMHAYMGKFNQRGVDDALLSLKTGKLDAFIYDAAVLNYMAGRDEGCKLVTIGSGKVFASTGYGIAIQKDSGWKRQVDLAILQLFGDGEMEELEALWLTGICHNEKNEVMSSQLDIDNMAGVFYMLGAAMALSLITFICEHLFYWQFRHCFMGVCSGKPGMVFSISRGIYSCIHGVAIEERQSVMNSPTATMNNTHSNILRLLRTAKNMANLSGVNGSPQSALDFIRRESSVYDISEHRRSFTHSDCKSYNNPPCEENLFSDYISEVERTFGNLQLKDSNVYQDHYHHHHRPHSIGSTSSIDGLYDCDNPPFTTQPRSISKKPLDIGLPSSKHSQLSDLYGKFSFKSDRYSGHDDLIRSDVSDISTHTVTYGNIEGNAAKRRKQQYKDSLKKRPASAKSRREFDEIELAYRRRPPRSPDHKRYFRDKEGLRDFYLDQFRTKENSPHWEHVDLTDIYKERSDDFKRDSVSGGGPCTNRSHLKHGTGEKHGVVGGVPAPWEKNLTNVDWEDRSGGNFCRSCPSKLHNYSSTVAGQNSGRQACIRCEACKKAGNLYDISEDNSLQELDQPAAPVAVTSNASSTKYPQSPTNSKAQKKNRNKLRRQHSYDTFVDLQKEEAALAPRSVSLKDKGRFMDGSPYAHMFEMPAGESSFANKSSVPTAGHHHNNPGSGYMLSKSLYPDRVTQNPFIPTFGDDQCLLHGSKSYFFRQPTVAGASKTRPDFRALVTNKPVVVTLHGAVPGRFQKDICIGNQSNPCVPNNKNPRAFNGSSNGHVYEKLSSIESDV
Protocol: as §1, §2, §3, §4

GluN1b wt/ GluN2B Q110A = GluN1b wt/ GluN2B Q110A (Rattus norvegicus, UniProt P35439+Q00960, Q110A); experiment: as above; details: GluN1-1b/Q110A, single oocytes
GluN1b wt/ GluN2B Q110A, sequence (Q00960 27-1482 Q110A, other chains not shown): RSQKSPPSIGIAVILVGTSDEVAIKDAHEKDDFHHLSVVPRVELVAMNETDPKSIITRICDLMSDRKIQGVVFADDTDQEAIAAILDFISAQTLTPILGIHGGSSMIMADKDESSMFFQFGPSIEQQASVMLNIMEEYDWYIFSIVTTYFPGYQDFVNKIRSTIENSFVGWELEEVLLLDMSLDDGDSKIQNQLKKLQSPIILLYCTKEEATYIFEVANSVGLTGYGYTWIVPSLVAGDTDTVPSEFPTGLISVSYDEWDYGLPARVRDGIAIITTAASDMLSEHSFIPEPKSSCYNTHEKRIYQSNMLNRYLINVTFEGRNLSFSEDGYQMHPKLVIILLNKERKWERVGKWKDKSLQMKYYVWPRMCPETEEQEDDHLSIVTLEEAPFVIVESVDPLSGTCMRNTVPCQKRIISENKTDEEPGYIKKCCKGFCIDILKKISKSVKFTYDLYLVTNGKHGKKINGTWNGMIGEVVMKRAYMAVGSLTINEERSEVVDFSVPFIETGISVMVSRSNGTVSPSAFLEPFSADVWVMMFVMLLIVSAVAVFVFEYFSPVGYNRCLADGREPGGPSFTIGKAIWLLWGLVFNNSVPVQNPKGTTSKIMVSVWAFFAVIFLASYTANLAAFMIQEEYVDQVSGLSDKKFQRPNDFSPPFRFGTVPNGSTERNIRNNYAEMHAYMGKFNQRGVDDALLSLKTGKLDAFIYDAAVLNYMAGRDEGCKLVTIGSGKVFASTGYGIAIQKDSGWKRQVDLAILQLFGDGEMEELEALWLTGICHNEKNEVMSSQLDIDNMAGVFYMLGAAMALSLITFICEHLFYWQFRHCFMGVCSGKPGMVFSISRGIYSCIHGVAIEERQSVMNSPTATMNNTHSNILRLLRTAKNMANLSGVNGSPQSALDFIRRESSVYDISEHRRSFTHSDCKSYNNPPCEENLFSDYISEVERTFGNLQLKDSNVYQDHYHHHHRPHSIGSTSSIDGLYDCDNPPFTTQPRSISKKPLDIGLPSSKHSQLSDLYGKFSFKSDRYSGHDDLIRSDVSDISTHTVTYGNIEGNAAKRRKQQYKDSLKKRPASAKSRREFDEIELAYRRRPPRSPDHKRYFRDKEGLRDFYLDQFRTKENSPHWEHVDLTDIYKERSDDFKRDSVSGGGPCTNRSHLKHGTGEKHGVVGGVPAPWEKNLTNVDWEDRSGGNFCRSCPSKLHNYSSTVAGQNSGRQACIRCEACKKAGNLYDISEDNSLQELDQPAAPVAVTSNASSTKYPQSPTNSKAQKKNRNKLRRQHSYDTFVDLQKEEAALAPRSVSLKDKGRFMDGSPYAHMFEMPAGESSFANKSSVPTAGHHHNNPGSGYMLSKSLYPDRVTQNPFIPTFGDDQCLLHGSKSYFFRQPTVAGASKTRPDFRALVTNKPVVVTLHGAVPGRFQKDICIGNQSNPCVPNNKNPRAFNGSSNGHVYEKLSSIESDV
Protocol: as §1, §2, §3, §4

GluN1b wt/ GluN2B N192A = GluN1b wt/ GluN2B N192A (Rattus norvegicus, UniProt P35439+Q00960, N192A); experiment: as above; details: GluN1-1b GluN2B N192A, single oocytes
Protocol: as §1, §2, §3, §4

[1] = molecular target: GluN1b wt/ GluN2B N192A/F194A (Rattus norvegicus, UniProt P35439+Q00960, F194A/N192A); experiment: as above; details: GluN1-1b GluN2B N192A/F194A, single oocytes
Protocol: as §1, §2, §3, §4

GluN1b wt/ GluN2B E236A = GluN1b wt/ GluN2B E236A (Rattus norvegicus, UniProt P35439+Q00960, E236A); experiment: as above; details: GluN1-1b/E236A, single oocytes
Protocol: as §1, §2, §3, §4

GluN1b wt/ GluN2B F194A = GluN1b wt/ GluN2B F194A (Rattus norvegicus, UniProt P35439+Q00960, F194A); experiment: as above; details: GluN1-1b GluN2B F194A, single oocytes
GluN1b wt/ GluN2B F194A, sequence (Q00960 27-1482 F194A, other chains not shown): as the sequence (Q00960 27-1482 F194A, other chains not shown) above
Protocol: as §1, §2, §3, §4

GluN1b wt/ GluN2B F176A = GluN1b wt/ GluN2B F176A (Rattus norvegicus, UniProt P35439+Q00960, F176A); experiment: as above; details: GluN1-1b/F176A, compound concentration 0.1 μM, single oocytes
Protocol: as §1, §2, §3, §4

GluN1a wt/ GluN2B wt = GluN1a wt/ GluN2B wt (Rattus norvegicus, UniProt P35439+Q00960); experiment: TEVC recording of NMDAR currents in X. laevis oocytes, inhibition by compound; details: fitted curve
Protocol: as §2
The compounds were retrieved as 10 mM stock solutions in DMSO and were subsequently diluted with agonist solution and adjusted to 0.1% DMSO concentration. Inhibition of each compound was measured via TEVC in X. laevis oocytes at room temperature using a Turbo Tec 10CX amplifier (NPI electronic, Tamm, Germany), NI USB 6221 DA/AD Interface (National Instruments, Austin, USA), and GePulse Software (Dr. Michael Pusch, Genova, Italy). Ba^2+-Ringer, consisting of 10 mM HEPES, 90 mM NaCl, 1 mM KCl, and 1.5 mM BaCl2, adjusted to pH 7.4, was used for TEVC measurements. […] Example traces for all recorded conditions can be found in Supplementary Figs. S2–S9. […]

[2] = compound concentration 0.1 μM, 0.1 µM
[3] = compound concentration 1 μM, 1 µM
[4] = compound concentration 10 μM, 10 µM
[5] = compound concentration 30 μM, 30 µM
[6] = compound concentration 0.001 μM, 0.001 µM
[7] = compound concentration 0.01 μM, 0.01 µM

Structure (SMILES): Oc1ccc2c(c1)CCN(CCCCc1ccccc1F)C[C@@H]2O [(R)-OF-NB1]
- inhibition (%) (GluN1b wt/ GluN2B F114A; [2]): 0% and -0.1234% and 0.05377% and 0.9122% and -0.4502% and 0.6359%
- inhibition (%) (GluN1b wt/ GluN2B F114A; [3]): 5.172% and 3.405% and 11.7405% and 3.985% and 6.7788% and 11.6899%
- inhibition (%) (GluN1b wt/ GluN2B F114A; [4]): 28.7376% and 28.152% and 41.6024% and 25.3505% and 32.7982% and 47.0166%
- inhibition (%) (GluN1b wt/ GluN2B F114A; [5]): 48.1467% and 50.0452% and 58.2362% and 42.0492% and 48.1566% and 68.3669%
- inhibition (%) (GluN1a wt/ GluN2B F194A): 62.0359% and 67.3898% and 52.2908% and 38.5354%
- inhibition (%) (GluN1b wt/ GluN2B Q110A; [6]): 0.08538% and 0.08022% and 0% and 3.773% and 0.6808%
- inhibition (%) (GluN1b wt/ GluN2B Q110A; [7]): 0.2135% and 0.8984% and 0.09131% and 6.386% and 0.9531%
- inhibition (%) (GluN1b wt/ GluN2B Q110A; [3]): 63.8847% and 47.3608% and 67.7066% and 43.0432% and 53.8678%
- inhibition (%) (GluN1b wt/ GluN2B Q110A; [4]): 66.196% and 77.355% and 60.3104% and 75.2702%
- inhibition (%) (GluN1b wt/ GluN2B Q110A; [5]): 73.5761% and 79.5313% and 72.8862% and 80.4698%
- inhibition (%) (GluN1b wt/ GluN2B N192A; [2]): 11.5535% and 2.646% and 3.333% and 2.434% and 5.269%
- inhibition (%) (GluN1b wt/ GluN2B N192A; [3]): 58.7866% and 66.5142% and 45.098% and 64.6036% and 45.5914%
- inhibition (%) (GluN1b wt/ GluN2B N192A; [4]): 78.8304% and 63.5294% and 72.1836% and 63.1183%
- inhibition (%) (GluN1b wt/ GluN2B N192A; [5]): 82.9467% and 68.4314% and 78.1641% and 72.9032%
- inhibition (%) [1, 3]: 30.0765% and 42.645% and 32.0859% and 35.9801% and 27.5699%
- inhibition (%) [1, 4]: 41.2448% and 54.8573% and 41.8896% and 45.7586% and 40.043%
- inhibition (%) [1, 5]: 42.0541% and 55.663% and 44.525% and 48.1091% and 43.2401%
- inhibition (%) (GluN1b wt/ GluN2B E236A; [6]): -0.7277% and -0.09897% and -3.685% and 0.09223% and -0.4964%
- inhibition (%) (GluN1b wt/ GluN2B E236A; [7]): -0.02683% and -0.8697% and -0.1414% and -3.324% and 0.8432%
- inhibition (%) (GluN1b wt/ GluN2B E236A; [2]): -0.3622% and -1.881% and -0.02828% and -2.8222% and 2.885%
- inhibition (%) (GluN1b wt/ GluN2B E236A; [3]): 34.2208% and 29.1673% and 28.2691% and 42.4638%
- inhibition (%) (GluN1b wt/ GluN2B E236A; [4]): 48.9705% and 53.372% and 37.1276% and 55.6127%
- inhibition (%) (GluN1b wt/ GluN2B E236A; [5]): 61.6968% and 66.4216% and 62.7783% and 65.1515%
- inhibition (%) (GluN1b wt/ GluN2B F194A; [3]): 30.6448% and 28.1302% and 37.6227% and 26.3279% and 28.8059% and 36.8421%
- inhibition (%) (GluN1b wt/ GluN2B F194A; [4]): 46.7656% and 43.0089% and 39.5783% and 50.3999% and 45.7865% and 60.0901% and 55.7315%
- inhibition (%) (GluN1b wt/ GluN2B F194A; [5]): 50.1328% and 48.4372% and 56.9793% and 54.2135% and 67.8468% and 62.0874%
- inhibition (%) (GluN1b wt/ GluN2B F176A): -0.7357% and -0.1027% and 0.02963% and 0.01807% and 0.6249% and 1.24% and 0.06543% and -1.094%
- A2 (level of maximal inhibition) (GluN1a wt/ GluN2B wt): 100.5%
